The other results are listed elsewhere or left out. Cut-off read from the data, not from the text of the source: active = 3.2 or more and inactive = the rest. Only a few entries rise above the background.
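Note: displayed peptides selected on beads carrying the immobilized SH2 domain, with library peptides lacking any tyrosine serving as negative controls.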

One assay concerns the target SHP2 C-SH2 domain E139D. As to the kind of experiment: enrichment score (SH2-bound / input frequency) (ratio); bacterial display of known human phosphotyrosine sites (pTyr-Var adds point mutants) read by sequencing; higher = stronger binding; tyrosines were phosphorylated by kinases first. The note with it: peptide library: pTyr-Var.
With VIDGKYAFKPK [GTF2E2_Y137], the enrichment score was inactive: 0.607.
Same read-out and setting: in the case of ERTIEYLEEVV [HADHA_Y239_A244V] it was inactive: 0.796; in that of NVGGKYSYLKV [GRM3_Y478], inactive: 1.09; in that of VKPRRYRPGTV [H3-5_Y41_H39R], inactive: 0.471.
Take FFWDGYMPRQF [GSS_Y270_R267W_YF]: the enrichment score was inactive: 1.35.
Turning to SHRQDYLVGNK [GSTA1_Y147_G144R], the enrichment score was inactive: 0.749.
Take FFRDGYMPRQF [GSS_Y270_YF]: the enrichment score was inactive: 0.715.
Consider NVGGKYSFLKV [GRM3_Y478_YF], for which the enrichment score is inactive: 0.924.
As to LEQGEYALRSH [HADHB_Y244_D242G], the enrichment score was inactive: 0.658.
As for SSREEYFIGGG [GYPC_Y126_K124E], the enrichment score was inactive: 0.955.
TTICKYITPME [GUCY2C_Y839_S840I]: the enrichment score is inactive: 0.99.
SSRKEYFIGGG [GYPC_Y126]: the enrichment score was inactive: 1.24.
With KSRQIYDAYIM [GRK3_Y109_R104K], the enrichment score was inactive: 0.969.
As to RAILNYIASKY [GSTA3_Y74], the enrichment score is inactive: 1.26.
In the case of SDYYAYSPVRE [H6PD_Y449], the enrichment score is inactive: 0.683.
As to RALLNYIASKF [GSTA3_Y74_I71L_YF], the enrichment score is inactive: 0.704.
For the molecule LIFTNYEAGKD [GSTP1_Y112_YF], the enrichment score was inactive: 0.861.
RKETFYILSCR [GUCY2C_Y681_T682I]: the enrichment score is inactive: 0.464.

A further assay concerns the target SHP2 C-SH2 domain wild-type. The assay is described as above. The note with it: peptide library: pTyr-Var.
With VIDGKYAFKPK [GTF2E2_Y137], the enrichment score is inactive: 0.74.
As to ERTIEYLEEVV [HADHA_Y239_A244V], the enrichment score is inactive: 0.704.
Consider NVGGKYSYLKV [GRM3_Y478], for which the enrichment score is inactive: 1.25.
As for VKPRRYRPGTV [H3-5_Y41_H39R], the enrichment score was inactive: 0.274.
On to FFWDGYMPRQF [GSS_Y270_R267W_YF], for which the enrichment score was inactive: 1.27.
In the case of SHRQDYLVGNK [GSTA1_Y147_G144R], the enrichment score was inactive: 0.738.
On to FFRDGYMPRQF [GSS_Y270_YF], for which the enrichment score is inactive: 0.601.
Take NVGGKYSFLKV [GRM3_Y478_YF]: the enrichment score was inactive: 1.01.
The same measure, in the same setting: in the case of LEQGEYALRSH [HADHB_Y244_D242G] it was inactive: 0.636; in that of SSREEYFIGGG [GYPC_Y126_K124E], inactive: 0.974; in that of TTICKYITPME [GUCY2C_Y839_S840I], inactive: 1.12.
On the same count and under the same terms, next, SSRKEYFIGGG [GYPC_Y126]: inactive: 1.04.
On to KSRQIYDAYIM [GRK3_Y109_R104K], for which the enrichment score is inactive: 0.807.
Take RAILNYIASKY [GSTA3_Y74]: the enrichment score is inactive: 1.32.
On the same count and under the same terms, in the case of SDYYAYSPVRE [H6PD_Y449] it was inactive: 1.37; in that of RALLNYIASKF [GSTA3_Y74_I71L_YF], inactive: 0.81; in that of LIFTNYEAGKD [GSTP1_Y112_YF], inactive: 1.26.
Consider RKETFYILSCR [GUCY2C_Y681_T682I], for which the enrichment score is inactive: 0.419.

A further assay deals with SHP2 N-SH2 domain L43F. Described as above. The note with it: peptide library: pTyr-Var.
Regarding VIDGKYAFKPK [GTF2E2_Y137], the enrichment score was inactive: 0.58.
For the molecule ERTIEYLEEVV [HADHA_Y239_A244V], the enrichment score is inactive: 0.968.
Same read-out and setting: next, NVGGKYSYLKV [GRM3_Y478]: inactive: 0.806; VKPRRYRPGTV [H3-5_Y41_H39R]: inactive: 0.323.
On to FFWDGYMPRQF [GSS_Y270_R267W_YF], for which the enrichment score was inactive: 1.14.
The same measure, in the same setting: next, SHRQDYLVGNK [GSTA1_Y147_G144R]: inactive: 0.761.
For the molecule FFRDGYMPRQF [GSS_Y270_YF], the enrichment score was inactive: 0.735.
In the case of NVGGKYSFLKV [GRM3_Y478_YF], the enrichment score is inactive: 0.85.
As to LEQGEYALRSH [HADHB_Y244_D242G], the enrichment score is inactive: 0.63.
Take SSREEYFIGGG [GYPC_Y126_K124E]: the enrichment score is inactive: 0.878.
Still for that read-out and setting: in the case of TTICKYITPME [GUCY2C_Y839_S840I] it was inactive: 1.17; in that of SSRKEYFIGGG [GYPC_Y126], inactive: 0.923.
On the same count and under the same terms, in the case of KSRQIYDAYIM [GRK3_Y109_R104K] it was inactive: 0.716; in that of RAILNYIASKY [GSTA3_Y74], inactive: 1.03.
Same read-out and setting: next, SDYYAYSPVRE [H6PD_Y449]: inactive: 0.816.
Take RALLNYIASKF [GSTA3_Y74_I71L_YF]: the enrichment score was inactive: 0.585.
For the molecule LIFTNYEAGKD [GSTP1_Y112_YF], the enrichment score is inactive: 0.66.
On to RKETFYILSCR [GUCY2C_Y681_T682I], for which the enrichment score was inactive: 0.52.

The target in another assay is SHP2 N-SH2 domain T42A. Described as above. The note with it: peptide library: pTyr-Var.
In the case of VIDGKYAFKPK [GTF2E2_Y137], the enrichment score was inactive: 0.593.
Still for that read-out and setting: in the case of ERTIEYLEEVV [HADHA_Y239_A244V] it was inactive: 1.52.
Still for that read-out and setting: in the case of NVGGKYSYLKV [GRM3_Y478] it was inactive: 1.09; in that of VKPRRYRPGTV [H3-5_Y41_H39R], inactive: 0.228.
Consider FFWDGYMPRQF [GSS_Y270_R267W_YF], for which the enrichment score is inactive: 1.1.
On the same count and under the same terms, next, SHRQDYLVGNK [GSTA1_Y147_G144R]: inactive: 0.679.
Same read-out and setting: next, FFRDGYMPRQF [GSS_Y270_YF]: inactive: 0.6; NVGGKYSFLKV [GRM3_Y478_YF]: inactive: 0.694; LEQGEYALRSH [HADHB_Y244_D242G]: inactive: 0.57.
Same read-out and setting: next, SSREEYFIGGG [GYPC_Y126_K124E]: inactive: 0.757; TTICKYITPME [GUCY2C_Y839_S840I]: inactive: 1.1; SSRKEYFIGGG [GYPC_Y126]: inactive: 0.874.
Take KSRQIYDAYIM [GRK3_Y109_R104K]: the enrichment score was inactive: 0.728.
With RAILNYIASKY [GSTA3_Y74], the enrichment score is inactive: 1.11.
The same measure, in the same setting: in the case of SDYYAYSPVRE [H6PD_Y449] it was inactive: 0.762; in that of RALLNYIASKF [GSTA3_Y74_I71L_YF], inactive: 0.73.
As for LIFTNYEAGKD [GSTP1_Y112_YF], the enrichment score was inactive: 1.02.
Regarding RKETFYILSCR [GUCY2C_Y681_T682I], the enrichment score is inactive: 0.358.

In a further assay the target is SHP2 N-SH2 domain T52S. The assay is described as above. The note with it: peptide library: pTyr-Var.
On to VIDGKYAFKPK [GTF2E2_Y137], for which the enrichment score was inactive: 0.67.
The same measure, in the same setting: in the case of ERTIEYLEEVV [HADHA_Y239_A244V] it was inactive: 0.716; in that of NVGGKYSYLKV [GRM3_Y478], inactive: 1.1; in that of VKPRRYRPGTV [H3-5_Y41_H39R], inactive: 0.222.
With FFWDGYMPRQF [GSS_Y270_R267W_YF], the enrichment score is inactive: 1.15.
Still for that read-out and setting: in the case of SHRQDYLVGNK [GSTA1_Y147_G144R] it was inactive: 0.659; in that of FFRDGYMPRQF [GSS_Y270_YF], inactive: 0.611.
With NVGGKYSFLKV [GRM3_Y478_YF], the enrichment score was inactive: 0.786.
On the same count and under the same terms, next, LEQGEYALRSH [HADHB_Y244_D242G]: inactive: 0.587; SSREEYFIGGG [GYPC_Y126_K124E]: inactive: 0.903; TTICKYITPME [GUCY2C_Y839_S840I]: inactive: 0.785.
For SSRKEYFIGGG [GYPC_Y126], the enrichment score was inactive: 0.653.
The same measure, in the same setting: in the case of KSRQIYDAYIM [GRK3_Y109_R104K] it was inactive: 0.975; in that of RAILNYIASKY [GSTA3_Y74], inactive: 1.11.
On to SDYYAYSPVRE [H6PD_Y449], for which the enrichment score was inactive: 0.787.
As to RALLNYIASKF [GSTA3_Y74_I71L_YF], the enrichment score is inactive: 0.841.
For LIFTNYEAGKD [GSTP1_Y112_YF], the enrichment score was inactive: 0.839.
As for RKETFYILSCR [GUCY2C_Y681_T682I], the enrichment score is inactive: 0.541.

In another assay the target is SHP2 N-SH2 domain wild-type. The description is as above. The note with it: peptide library: pTyr-Var.
Turning to VIDGKYAFKPK [GTF2E2_Y137], the enrichment score was inactive: 0.891.
On the same count and under the same terms, next, ERTIEYLEEVV [HADHA_Y239_A244V]: inactive: 0.79; NVGGKYSYLKV [GRM3_Y478]: inactive: 1.31; VKPRRYRPGTV [H3-5_Y41_H39R]: inactive: 0.265.
As to FFWDGYMPRQF [GSS_Y270_R267W_YF], the enrichment score was inactive: 1.15.
Still for that read-out and setting: in the case of SHRQDYLVGNK [GSTA1_Y147_G144R] it was inactive: 0.522; in that of FFRDGYMPRQF [GSS_Y270_YF], inactive: 0.651.
With NVGGKYSFLKV [GRM3_Y478_YF], the enrichment score was inactive: 0.949.
Same read-out and setting: next, LEQGEYALRSH [HADHB_Y244_D242G]: inactive: 0.816; SSREEYFIGGG [GYPC_Y126_K124E]: inactive: 1.01; TTICKYITPME [GUCY2C_Y839_S840I]: inactive: 0.822.
For the molecule SSRKEYFIGGG [GYPC_Y126], the enrichment score was inactive: 0.952.
With KSRQIYDAYIM [GRK3_Y109_R104K], the enrichment score was inactive: 0.968.
As for RAILNYIASKY [GSTA3_Y74], the enrichment score was inactive: 1.23.
Take SDYYAYSPVRE [H6PD_Y449]: the enrichment score is inactive: 0.746.
With RALLNYIASKF [GSTA3_Y74_I71L_YF], the enrichment score was inactive: 0.886.
Take LIFTNYEAGKD [GSTP1_Y112_YF]: the enrichment score was inactive: 1.12.
On to RKETFYILSCR [GUCY2C_Y681_T682I], for which the enrichment score is inactive: 0.445.

The values are drawn from the supplement of paper PMC10369915.
